Laboratory results as given in article PMC6349883, “Directed evolution of super-secreted variants from phage-displayed human Interleukin-2” (Scientific Reports, 2019).

Tests used:
[1] = biological target: T1, human CD25 (IL-2R alpha subunit), recombinant, R&D (human, UniProt P01589 22-240); test: ELISA; Fc-fusion proteins incubated on polyvinyl chloride microplates coated with the recombinant IL-2R subunits (R&D); bound proteins detected with anti-human Fc antibody conjugated to horseradish peroxidase; details: both partners purified
T1 construct: Interleukin-2 receptor subunit alpha (CD25), human, recombinant extracellular region; also called alpha receptor subunit; source: bought: R&D
T1 sequence (looked up): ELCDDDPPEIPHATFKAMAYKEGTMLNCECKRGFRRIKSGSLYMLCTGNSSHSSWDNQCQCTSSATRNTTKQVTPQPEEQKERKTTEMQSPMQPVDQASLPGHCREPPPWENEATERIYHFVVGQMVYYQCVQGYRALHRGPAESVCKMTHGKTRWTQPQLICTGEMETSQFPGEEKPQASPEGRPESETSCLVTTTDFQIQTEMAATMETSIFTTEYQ

[2] = biological target: T2, mouse CD25 (IL-2R alpha subunit), recombinant, R&D (mouse, UniProt P01590 22-236); test: as above; details: both partners purified
T2 construct: Interleukin-2 receptor subunit alpha (CD25), mouse, recombinant extracellular region; source: bought: R&D
T2 sequence (looked up): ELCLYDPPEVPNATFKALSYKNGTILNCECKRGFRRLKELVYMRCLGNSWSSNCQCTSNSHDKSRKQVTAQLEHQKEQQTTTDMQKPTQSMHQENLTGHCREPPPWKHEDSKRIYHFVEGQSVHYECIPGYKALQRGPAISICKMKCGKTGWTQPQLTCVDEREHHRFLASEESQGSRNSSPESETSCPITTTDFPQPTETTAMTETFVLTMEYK

B1: IL-2 (K35E)/human Fc fusion protein (Fc fusion)
chain: not shown
notes: Interleukin-2, human, with K35E; Predominantly a homodimer by SEC, due to the Fc moiety; 80 kDa; also called K35E IL-2/Fc; IL-2 K35E/Fc; not shown: Fc (human IgG1), C-terminal, kept
binding result [1]: binds | binding result [2]: binds
